# Test results taken from publication PMC4336329 (PLoS ONE, 2015).
# The whole screen tested about 310,000 compounds, of which about 14,000 (4.5%) showed an effect of 50% or more. The effect is printed as a negative number. The list shows a part of the results.
# Target: human ether-à-go-go-related gene (hERG) potassium channel (human, UniProt Q12809)
# Assay: primary screen, population patch clamp on CHO cells stably expressing hERG
# 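Further: peak tail current of the secondary pulse compared with the same well before compound.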
# Sequence of human ether-à-go-go-related gene (hERG) potassium channel (Q12809 whole entry, looked up): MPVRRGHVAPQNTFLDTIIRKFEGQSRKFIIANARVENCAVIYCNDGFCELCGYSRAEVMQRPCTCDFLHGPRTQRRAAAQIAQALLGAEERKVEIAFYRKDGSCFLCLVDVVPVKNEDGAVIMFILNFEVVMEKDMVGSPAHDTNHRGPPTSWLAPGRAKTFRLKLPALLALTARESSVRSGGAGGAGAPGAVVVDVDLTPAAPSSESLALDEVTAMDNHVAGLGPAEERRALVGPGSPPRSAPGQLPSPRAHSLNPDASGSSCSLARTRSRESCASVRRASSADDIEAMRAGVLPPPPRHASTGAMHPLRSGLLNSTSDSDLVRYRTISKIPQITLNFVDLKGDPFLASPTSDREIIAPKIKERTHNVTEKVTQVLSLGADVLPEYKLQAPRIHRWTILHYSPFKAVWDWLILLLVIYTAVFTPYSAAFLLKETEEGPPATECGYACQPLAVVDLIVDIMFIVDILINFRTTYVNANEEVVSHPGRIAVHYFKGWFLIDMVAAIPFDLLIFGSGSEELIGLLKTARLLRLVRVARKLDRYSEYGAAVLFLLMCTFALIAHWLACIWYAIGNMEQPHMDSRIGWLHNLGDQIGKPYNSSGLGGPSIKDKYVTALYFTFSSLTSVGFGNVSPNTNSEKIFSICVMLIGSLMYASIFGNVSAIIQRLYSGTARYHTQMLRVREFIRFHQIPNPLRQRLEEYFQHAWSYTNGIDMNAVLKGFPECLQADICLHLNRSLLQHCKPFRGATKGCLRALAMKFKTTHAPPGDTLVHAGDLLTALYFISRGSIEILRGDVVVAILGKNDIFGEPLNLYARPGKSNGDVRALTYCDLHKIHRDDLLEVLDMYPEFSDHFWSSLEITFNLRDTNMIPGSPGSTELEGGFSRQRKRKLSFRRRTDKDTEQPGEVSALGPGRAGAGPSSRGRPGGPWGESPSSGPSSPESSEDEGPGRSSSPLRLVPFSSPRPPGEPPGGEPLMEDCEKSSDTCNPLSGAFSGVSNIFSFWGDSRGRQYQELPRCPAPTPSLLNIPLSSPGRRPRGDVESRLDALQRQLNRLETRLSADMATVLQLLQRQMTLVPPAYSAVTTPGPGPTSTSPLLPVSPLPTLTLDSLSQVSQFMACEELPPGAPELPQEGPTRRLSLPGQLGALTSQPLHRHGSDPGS
row,Compound,"hERG current change (%, negative = inhibition) at 10uM [%]"
1,COc1ccc(OC)c(S(=O)(=O)Nc2ccccc2C(=O)O)c1,6.5
2,CSCCC(N=C1NS(=O)(=O)c2ccccc21)C(=O)NCc1ccccc1F (stereo not shown),5.73
3,Cc1ccc(NC(=O)COC(=O)c2ccc([N+](=O)[O-])s2)c(C)c1,20.5
4,O=c1[nH]c(CSc2nnc3ccccn23)nc2ccccc12,-9.13
5,Cc1cccc(C)c1NC(=S)N=Nc1c(O)n(C)c2ccc(S(=O)(=O)N3CCOCC3)cc12,18.8
6,Cc1cccc(/C=C/C(=O)c2cc(Br)ccc(=O)c2O)c1,16.7
7,CN1CCN(c2oc(-c3cccs3)nc2S(=O)(=O)c2ccccc2)CC1,-32.2
8,Cc1ccc(Sc2ccc([N+](=O)[O-])cc2[N+](=O)[O-])nc1,-19.1
9,CCOC(=O)c1c(S(=O)(=O)NCc2ccco2)c(C)n(C)c1C,-13.8
10,Cc1ccc(-c2cccc(C3CC=CC4C3C(=O)N(Cc3ccccc3)C4c3ccc(C(F)(F)F)cc3)c2)cc1 (stereo not shown),25.5
11,C=CCn1c(SCC(=O)NC)nc2sc3c(c2c1=O)CCC3,-19.4
12,CCCc1cc(=O)oc2c3c(cc(OCC(=O)NCc4ccccn4)c12)OC(C)(C)CC3,-22.7
13,CC(C)(C)c1ccc(S(=O)(=O)N2CCC(NC(=O)c3ccco3)CC2)cc1,18.3
14,CC1(c2ccc([N+](=O)[O-])cc2)NC(=O)N(CC(=O)Nc2ccc(N3CCCCC3)cc2)C1=O (stereo not shown),9.59
15,C=CCn1c(C2CCCCC2)n[nH]c1=S,13.1
16,Cc1ccc(C(=O)Nc2cccc(C(=O)N/N=C/c3ccc(O)cc3)c2)cc1,23.9
17,O=C(Nc1ccccc1)Nc1cccc(NC(=O)Nc2ccccc2)c1F,19.1
18,COc1ccc(/C=C/C(=O)NC(=S)Nc2ccccc2C(=O)NC2CCCCC2)cc1,1.07
19,Cc1nc2cc(-n3ccc(=O)cc3)ccc2n1-c1ccccc1,-13.9
20,CC(=O)NC1C2CN3CCN(C2)CC1(Cc1ccccc1)C3 (stereo not shown),9.26
21,CCN(CC(=O)Nc1ccccc1OC)C(=O)c1ccc(N(C)S(=O)(=O)c2ccc(C)cc2)cc1,-62.2
22,CN(c1ccccc1)S(=O)(=O)c1cccc(NC(=O)CSc2nnc(N)s2)c1,13.6

row,Compound,"hERG current change (%, negative = inhibition) at 10uM [%]"
1,O=C(COC(=O)Cn1cnc2ccccc21)Nc1ccc2c(c1)OCCO2,13.4
2,CN1CCN(c2ccc(S(=O)(=O)N3CCCCC3)cc2N)CC1.Cl,-0.152
3,Cc1cc(C(=O)COc2cccnc2[N+](=O)[O-])c(C)n1-c1ccccc1F,-2.02
4,CCOc1ccc(CCNC(=O)COC(=O)c2nn(C)c(=O)c3ccccc23)cc1OCC,-12.3
5,Br.COc1cc(NS(=O)(=O)c2ccc(Nc3nc(-c4ccccn4)cs3)cc2)nc(OC)n1,-0.484
6,N/C(CSc1ncccc1C(F)(F)F)=N\O,16.4
7,CCOc1ccc(N(Cc2ccccc2F)C2=NC3CS(=O)(=O)CC3S2)cc1 (stereo not shown),-15.3
8,CCOc1ccc(NC(=O)C(C)Oc2ccc(C#N)cc2)cc1S(=O)(=O)N1CCCC1 (stereo not shown),-62.1
9,COc1cccc(C(=O)NCc2ccc3c(c2)cc(C)n3C)c1,17
10,Cc1ccc(NC2c3ncccc3C(=O)N2c2ccccc2C)cc1C (stereo not shown),11
11,COc1ccc(S(=O)(=O)N2CCC(n3cnc4ccccc43)CC2)cc1,-64.9
12,Cc1ccc(C)c(NC(=S)NCCc2cnc[nH]2)c1,8.43
13,Cc1nc2c(C(=O)NCc3ccc4c(c3)OCO4)cnn2c(C)c1Cc1ccc(F)cc1Cl,-22.3
14,NC(=O)C1CCN(C(=O)CCNS(=O)(=O)c2ccccc2F)CC1,9.26
15,Cc1csc(SCC(=O)NC(=O)NC(C)(C)C)n1,5.75
16,CC(C)(C)c1ccc(-c2noc(C(=O)NN)n2)cc1,19.1
17,CC1=NN(C(=O)COc2ccc(C)c(C)c2)C(O)(c2ccc(Cl)cc2)C1 (stereo not shown),-3.96
18,C/C(CC(=O)Nc1ccccn1)=N\NC(=O)c1ccc2ccccc2c1,4.85
19,CCOc1ccc(S(=O)(=O)NCCCl)cc1,9.89
20,O=C(Nc1ccccn1)c1ccc2ccccc2n1,-4.94
21,O=C1NC(=O)C(C(CC(=O)c2ccccc2)c2ccccc2)C(=O)N1 (stereo not shown),30.6
22,CN(C)C(=O)OCc1n(C)cc[n+]1C.Cc1ccc(S(=O)(=O)[O-])cc1,11.5

row,Compound,"hERG current change (%, negative = inhibition) at 10uM [%]"
1,CCCSCCCNC(=O)CN1C(=O)COc2ccc(S(=O)(=O)N3CCCC3)cc21,2.87
2,Cc1cc(NC(=O)CSc2nnc(-c3cccnc3)n2N)no1,-0.572
3,Cc1ccc(-c2nn(-c3ccccc3)cc2CN(Cc2ccccc2)C(=O)CCC(=O)O)o1,0.911
4,COc1ccc(CCNc2nc3ccc(C)cc3n3cnnc23)cc1OC,10.6
5,O=C(Nc1ncc2c(n1)-c1ccccc1CC2)c1cccc(Cl)c1,-7.54
6,CC(C)(C)NC(=O)CSc1nnc(-c2ccncc2)o1,1.41
7,NC(=O)CSc1nnc(COc2cccc3ccccc23)o1,-7.72
8,O=C(CCCc1c[nH]c2ccccc12)N1CCN(S(=O)(=O)c2cccs2)CC1,-13.6
9,Cc1ccccc1OCC(O)CN(CCO)Cc1ccccc1.Cl (stereo not shown),-22.5
10,CC(C)Nc1ncnc2ccc(Br)cc12,4.91
11,Cc1cc(C(=O)N/N=C/c2cc(Br)ccc2OC(=O)c2ccc(Br)cc2)n[nH]1,-1.42
12,Cc1[nH]c(=S)n(CC2CCCO2)c1C (stereo not shown),-8.2
13,CC(=O)N/C(=C\c1ccccc1)C(=O)OCC(=O)N(CC(C)C)c1c(N)n(Cc2ccccc2)c(=O)[nH]c1=O,6.75
14,CCc1c(C)c(C#N)c2[nH]c3ccccc3n2c1=S,5.02
15,COc1ccc(CCNC(=O)c2c(O)c3c([nH]c2=O)CCCC3)cc1OC,2.12
16,CCNc1oc(-c2ccc(OC)cc2)nc1S(=O)(=O)c1ccc(Br)cc1,-17.3
17,CCOC(=O)CCn1cc(F)c(=O)n(Cc2ccccc2)c1=O,17
18,Cc1ccc(NC(=O)N/C=C/c2ccccc2)cc1,0.0712
19,COc1ccc(NC(=O)Nc2ccc(Br)cn2)cc1,14.8
20,Cc1c(NC(C)c2ccccc2O)c(=O)n(-c2ccccc2)n1C (stereo not shown),10.3
21,COc1ccc(Nc2cc(Nc3ccc(OC)cc3)ncn2)cc1,8.68
22,Cc1nn(-c2ccccc2)c(C)c1Cc1ccc(O)cc1,8.03

row,Compound,"hERG current change (%, negative = inhibition) at 10uM [%]"
1,Cn1c(=O)c2c(nc(CN3CCN(C(c4ccccc4)c4ccccc4)CC3)n2CCCO)n(C)c1=O,-30.6
2,COc1ccc(CCNc2ccc(S(N)(=O)=O)cn2)cc1,16.8
3,CC1(C)OC(c2ccccc2)=C/C(=C/C=C2C(=O)NC(=S)NC2=O)O1,-19.5
4,COCCNC(=S)N1CCN(C/C=C/c2ccccc2)CC1,4.83
5,O=C(CSc1nnc(-c2cccs2)o1)N1CCCCC1,2.99
6,CCOc1ccc(C2C(C(=O)OC)=CN(CCOC)C=C2C(=O)OC)cc1,-14.6
7,Cc1cccc(C)c1OCc1cc(C(=O)NCC2CC2)no1,7.3
8,COc1ccc(NC(=O)CCCN2C(=O)C3C4C=CC(C4)C3C2=O)c(OC)c1 (stereo not shown),-2.63
9,CCOc1cc(/C=N/NC(=O)c2cc3c(ccc4ccccc43)o2)ccc1O,1.28
10,CCC(O)c1cc2c(cc1NC(=O)c1cccs1)OCCO2 (stereo not shown),7.08
11,Cc1ccccc1C(=O)Nc1cccc(C(=O)Nc2ccccc2C(=O)O)c1,16.8
12,CCc1ccc(CNC(=O)Cc2ccc(NC(=O)C3=C(C)OCCS3)cc2)cc1,16.8
13,Cc1nnc(CN(C)C(=O)c2cc(COc3ccc(F)cc3Cl)on2)o1,-1.05
14,Cc1c(C)c2c(OCC(=O)NCc3ccco3)cc3c(c2oc1=O)CCC(C)(C)O3,8.18
15,Cn1c(SCc2ccccc2)nc(N)c(N=O)c1=O,-17.3
16,O=C(CSc1n[nH]c(-c2ccccc2O)n1)N1CCCc2ccccc21,24.2
17,Cc1cc(NC(=O)C2CC(=O)N(c3cccc(C)c3C)C2)no1 (stereo not shown),18.8
18,Cc1ccc(-n2ncc(C(=O)Nc3cc(Cl)ccc3C)c2C2CCNCC2)cc1C.Cl,-35.1
19,COc1ccc2[nH]cc(CCNC(=O)Nc3ccccc3)c2c1,18.1
20,COc1ccc(NS(=O)(=O)c2ccc(OC)c(OC)c2)cc1OC,13.3
21,CCOc1ccccc1N1CCN(C(=O)c2ccc(S(=O)(=O)Nc3ccccc3)cc2)CC1,5.18
22,CCOC(=O)c1[nH]c2c(c1C)C(=O)CC(c1ccco1)C2 (stereo not shown),7.57
